# Measurements reported in the supplement of paper PMC8728848.
# The list shows a part of the results.
# How the values were obtained:
# Test in all cases: glycan array binding signal (z-score within array); higher = stronger binding
# Details in all cases: glycan notation: IUPAC condensed, linker removed
# [1] = target: Gal(b1-4)GlcNAc(b1-6)Gal(b1-4)GlcNAc
# Procedure, shortened: (§1)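 Glycan array data were curated from 3228 arrays in the Consortium for Functional Glycomics database and kept only where the protein sequence was available. Glycan names were converted to IUPAC-condensed notation, and columns mapping to the same glycan were averaged. The binding signal is a within-array Z-score, averaged across arrays of the same protein sequence at different concentrations or buffers and across linkers. Negative Z-scores can be read as non-binding.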
# [2] = target: Gal(b1-4)GlcNAc(b1-6)GalNAc
# Procedure, shortened: as §1
# [3] = target: Gal(b1-4)GlcNAc(b1-6)[Gal(b1-3)]GalNAc
# Procedure, shortened: as §1
# [4] = target: Gal(b1-4)GlcNAc(b1-6)[Gal(b1-4)GlcNAc(b1-3)]GalNAc
# Procedure, shortened: as §1
# Gal(b1-4)GlcNAc6P = target: Gal(b1-4)GlcNAc6P
# Procedure, shortened: as §1
# Gal(b1-6)Gal = target: Gal(b1-6)Gal
# Procedure, shortened: as §1
# Gal3S(b1-3)GalNAc = target: Gal3S(b1-3)GalNAc
# Procedure, shortened: as §1
# Gal3S(b1-3)GlcNAc = target: Gal3S(b1-3)GlcNAc
# Procedure, shortened: as §1
# [5] = target: Gal3S(b1-3)[Fuc(a1-4)]GlcNAc
# Procedure, shortened: as §1
# Gal3S(b1-4)Glc = target: Gal3S(b1-4)Glc
# Procedure, shortened: as §1
# Gal3S(b1-4)Glc6S = target: Gal3S(b1-4)Glc6S
# Procedure, shortened: as §1
# Gal3S(b1-4)GlcNAc = target: Gal3S(b1-4)GlcNAc
# Procedure, shortened: as §1
# [6] = target: Gal3S(b1-4)[Fuc(a1-3)]Glc6S
# Procedure, shortened: as §1
# [7] = target: Gal3S(b1-4)[Fuc(a1-3)]GlcNAc
# Procedure, shortened: as §1
# [8] = target: Gal3S(b1-4)[Fuc(a1-3)]GlcNAc6S
# Procedure, shortened: as §1
# Gal3S4S(b1-4)GlcNAc = target: Gal3S4S(b1-4)GlcNAc
# Procedure, shortened: as §1
# Gal3S6S(b1-4)GlcNAc = target: Gal3S6S(b1-4)GlcNAc
# Procedure, shortened: as §1
# Gal3S6S(b1-4)GlcNAc6S = target: Gal3S6S(b1-4)GlcNAc6S
# Procedure, shortened: as §1
# Gal4S(b1-4)GlcNAc = target: Gal4S(b1-4)GlcNAc
# Procedure, shortened: as §1
# Gal4S6S(b1-4)GlcNAc = target: Gal4S6S(b1-4)GlcNAc
# Procedure, shortened: as §1
# Gal6P(b1-4)GlcNAc = target: Gal6P(b1-4)GlcNAc
# Procedure, shortened: as §1
# Gal6S(b1-3)GlcNAc = target: Gal6S(b1-3)GlcNAc
# Procedure, shortened: as §1
# Gal6S(b1-3)GlcNAc6S = target: Gal6S(b1-3)GlcNAc6S
# Procedure, shortened: as §1
# Gal6S(b1-4)Glc = target: Gal6S(b1-4)Glc
# Procedure, shortened: as §1
# Gal6S(b1-4)Glc6S = target: Gal6S(b1-4)Glc6S
# Procedure, shortened: as §1
# Gal6S(b1-4)GlcNAc = target: Gal6S(b1-4)GlcNAc
# Procedure, shortened: as §1
# Gal6S(b1-4)GlcNAc6S = target: Gal6S(b1-4)GlcNAc6S
# Procedure, shortened: as §1
# GalNAc(a1-3)Gal = target: GalNAc(a1-3)Gal
# Procedure, shortened: as §1
# GalNAc(a1-3)GalNAc = target: GalNAc(a1-3)GalNAc
# Procedure, shortened: as §1
# [9] = target: GalNAc(a1-3)GalNAc(b1-3)Gal(a1-4)Gal(b1-4)Glc
# Procedure, shortened: as §1
# [10] = target: GalNAc(a1-3)GalNAc(b1-3)Gal(a1-4)Gal(b1-4)GlcNAc
# Procedure, shortened: as §1
# GalNAc(b1-3)Gal = target: GalNAc(b1-3)Gal
# Procedure, shortened: as §1
# [11] = target: GalNAc(b1-3)Gal(a1-4)Gal(b1-4)GlcNAc
# Procedure, shortened: as §1
# [12] = target: GalNAc(b1-3)Gal(a1-4)Gal(b1-4)GlcNAc(b1-3)Gal(b1-4)Glc
# Procedure, shortened: as §1
# [13] = target: GalNAc(b1-3)Gal(a1-6)Gal(b1-4)Glc
# Procedure, shortened: as §1
# GalNAc(b1-3)GalNAc = target: GalNAc(b1-3)GalNAc
# Procedure, shortened: as §1
# GalNAc(b1-3)GlcNAc = target: GalNAc(b1-3)GlcNAc
# Procedure, shortened: as §1
# GalNAc(b1-4)Gal(b1-4)Glc = target: GalNAc(b1-4)Gal(b1-4)Glc
# Procedure, shortened: as §1
binder,measurement,setting,value
Epa1 (Candida glabrata) (protein) MGSSHHHHHHSSGLVPRGSHMTSSNDISLASKDPTTFPLGCSPDITTPKKGLSMELYSYDFRKKGSYPCWDAAYLDPNYPRTGYKSHRLLAKVDGVTGNINFYYHATKGCTPQLGHLPASYNYPKPLTMTNFTMLLYGYFRPKVTGFHTFTISADDLLFVNFGAGNAFDCCRRDSSADHFGNYQAYAIWGSKTAKDELTVHLDAGVYYPIRLFYNNREYDGALSFTFKTESNENTVSDFSEYFFSLDDTEEGCPGLISYD,glycan array binding signal (z-score),[1],3.12
same,glycan array binding signal (z-score),[2],1.22
same,glycan array binding signal (z-score),[3],4.02
same,glycan array binding signal (z-score),[4],0.922
same,glycan array binding signal (z-score),Gal(b1-4)GlcNAc6P,-0.257
same,glycan array binding signal (z-score),Gal(b1-6)Gal,0.429
same,glycan array binding signal (z-score),Gal3S(b1-3)GalNAc,-0.317
same,glycan array binding signal (z-score),Gal3S(b1-3)GlcNAc,-0.351
same,glycan array binding signal (z-score),[5],-0.293
same,glycan array binding signal (z-score),Gal3S(b1-4)Glc,-0.295
same,glycan array binding signal (z-score),Gal3S(b1-4)Glc6S,-0.272
same,glycan array binding signal (z-score),Gal3S(b1-4)GlcNAc,-0.442
same,glycan array binding signal (z-score),[6],-0.042
same,glycan array binding signal (z-score),[7],-0.314
same,glycan array binding signal (z-score),[8],-0.394
same,glycan array binding signal (z-score),Gal3S4S(b1-4)GlcNAc,-0.316
same,glycan array binding signal (z-score),Gal3S6S(b1-4)GlcNAc,-0.276
same,glycan array binding signal (z-score),Gal3S6S(b1-4)GlcNAc6S,-0.197
same,glycan array binding signal (z-score),Gal4S(b1-4)GlcNAc,-0.351
same,glycan array binding signal (z-score),Gal4S6S(b1-4)GlcNAc,-0.342
same,glycan array binding signal (z-score),Gal6P(b1-4)GlcNAc,-0.272
same,glycan array binding signal (z-score),Gal6S(b1-3)GlcNAc,-0.081
same,glycan array binding signal (z-score),Gal6S(b1-3)GlcNAc6S,-0.014
same,glycan array binding signal (z-score),Gal6S(b1-4)Glc,0.321
same,glycan array binding signal (z-score),Gal6S(b1-4)Glc6S,0.427
same,glycan array binding signal (z-score),Gal6S(b1-4)GlcNAc,0.393
same,glycan array binding signal (z-score),Gal6S(b1-4)GlcNAc6S,0.803
same,glycan array binding signal (z-score),GalNAc(a1-3)Gal,-0.273
same,glycan array binding signal (z-score),GalNAc(a1-3)GalNAc,-0.265
same,glycan array binding signal (z-score),[9],-0.312
same,glycan array binding signal (z-score),[10],-0.312
same,glycan array binding signal (z-score),GalNAc(b1-3)Gal,-0.28
same,glycan array binding signal (z-score),[11],-0.287
same,glycan array binding signal (z-score),[12],-0.312
same,glycan array binding signal (z-score),[13],-0.314
same,glycan array binding signal (z-score),GalNAc(b1-3)GalNAc,-0.302
same,glycan array binding signal (z-score),GalNAc(b1-3)GlcNAc,-0.344
same,glycan array binding signal (z-score),GalNAc(b1-4)Gal(b1-4)Glc,-0.254
